# Laboratory results as given in PubChem BioAssay (Tox21).
# Where “and” joins values, the source holds several entries; their conditions need not be identical. Identical values can stand only once. The shares of active, inactive and inconclusive entries below differ from those in the screen. For some of these results: Where the call is inconclusive, the potency comes from a doubtful curve fit. Some structures have more than one record in an assay (separate samples or runs), and their calls can disagree. Calls of active or inactive are those of the source. Unless noted, calls come from the whole dose curve.
# How the values were obtained:
# [1] = qHTS assay to identify small molecule agonists of the endoplasmic reticulum stress response signaling pathway (AID 1159516; active = well fitted activation curve with a large enough effect in the signal ratio in the repeat runs, not every such curve was filed as active; inconclusive = weak or mixed curves, or effect the other way; the % refers to the signal ratio; for activation: % is set by controls: 0 for no effect and ±100 for the full control effect); conditions: ESRE-bla HeLa, ER stress beta-lactamase reporter, 5 h; activation: at 61 µM (top of the series) unless noted
# In short: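 Read-out is beta-lactamase cleavage of a FRET substrate (405 nm excitation; 460 and 530 nm emissions) in ESRE-bla HeLa cells after a 5 hr compound exposure at 37 C. Substrate incubation ran 2 hr at room temperature.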
# [2] = target: Retinoic acid receptor RXR-alpha (Homo sapiens) (UniProt P19793); assay: qHTS assay to identify small molecule agonists of the RXR signaling pathway (AID 1159527); conditions: HEK293T RXRa-UAS-bla, beta-lactamase ratio, 16 h; note: nearly all actives have a fitted effect of over 35% in size; for activation: % is set by controls: 0 for no effect and ±100 for the full control effect
# In short: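 Beta-lactamase reporter assay, agonist format. Engineered HEK 293T line, charcoal-stripped FBS at 2%, overnight (16 hr) exposure, fluorescence at 460 and 530 nm after 405 nm excitation.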
# [3] = qHTS assay to identify small molecule agonists of the endoplasmic reticulum stress response signaling pathway - cell viability counter screen (AID 1159517); conditions: ESRE-bla HeLa viability, CellTiter-Glo luminescence, 5 h; series mostly up to 61 µM; note: nearly all actives have a fitted effect of over 50% in size
# In short: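 Counter-screen wells were identical to the reporter wells. Cells were plated at 1,500 per well and dosed for 5 hr, then read for luminescence 30 min after CellTiter-Glo addition.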
# [4] = qHTS assay to identify small molecule antagonists of the retinoid-related orphan receptor gamma (ROR-gamma) signaling pathway - cell viability counter screen (AID 1159520; active = well fitted curve in the direction sought with a large enough effect in the repeat runs; inconclusive = weak or mixed curves; inactive = no such curve, though single readings can be large; an effect the other way counts as inactive or inconclusive; note: nearly all actives have a fitted effect of over 50% in size); conditions: Tet-on RORgamma CHO cells viability, ATP luminescence, 16 h; series mostly up to 92.4 µM
# In short: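 Tet-on ROR gamma CHO cells were given compounds for 2 hr, then doxycycline hyclate at 1 uM final, and incubated 16 hr at 37 C. Viability was measured as ATP content by CellTiter-Glo luminescence.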
# [5] = target: Nuclear receptor ROR-gamma (Homo sapiens) (UniProt P51449); assay: qHTS assay to identify small molecule antagonists of the retinoid-related orphan receptor gamma (ROR-gamma) signaling pathway (AID 1159521; active = well fitted curve in the direction sought with a large enough effect in the repeat runs; inconclusive = weak or mixed curves; inactive = no such curve, though single readings can be large; an effect the other way counts as inactive or inconclusive; note: nearly all actives have a fitted effect of over 50% in size); conditions: Tet-on RORgamma CHO cells, RORE-luciferase, 16 h; series mostly up to 92.4 µM
# In short: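 CHO cells expressing RORγ under a TET-on promoter, luciferase under RORE control. Dox 1 uM final, 16 h; compounds added 2 h prior. Luminescence decrease measured.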
# [6] = qHTS assay to identify small molecule agonists of the AP-1 signaling pathway (AID 1159526); conditions: ME-180 (cervical carcinoma) AP-1-bla reporter, beta-lactamase FRET ratio, 5 h; for activation: % is set by controls: 0 for no effect and ±100 for the full control effect
# [7] = qHTS assay to identify small molecule antagonists of the vitamin D receptor (VDR) signaling pathway - cell viability counter screen (AID 743225; active = well fitted curve in the direction sought with a large enough effect in the repeat runs; inconclusive = weak or mixed curves; inactive = no such curve, though single readings can be large; an effect the other way counts as inactive or inconclusive; note: nearly all actives have a fitted effect of over 50% in size; for viability change, negative = cytotoxic: % is set by controls: 0 for no effect and ±100 for the full control effect); conditions: VDR-bla HEK293T viability, CellTiter-Glo luminescence, 16 h; viability change, negative = cytotoxic: at 61 µM (top of the series) unless noted
# In short: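 Luminescent cell viability (CellTiter-Glo) in VDR-bla HEK 293T cells after 16 h compound exposure at 37C in the presence of 3 nM final 1-alpha,25-dihydroxy vitamin D3.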
# [8] = qHTS assay to identify small molecule agonists of the RXR signaling pathway - cell viability counter screen (AID 1159529; active = well fitted curve in the direction sought with a large enough effect in the repeat runs; inconclusive = weak or mixed curves; inactive = no such curve, though single readings can be large; an effect the other way counts as inactive or inconclusive; note: nearly all actives have a fitted effect of over 50% in size); conditions: RXR-alpha-bla HEK293T viability, CellTiter-Glo, 16 h; series mostly up to 76.8 µM
# In short: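 Same-well viability check after the LiveBLAzer FRET read: CellTiter-Glo added, luminescence measured after 30 min at room temperature. Reporter HEK 293T cells had been treated with compounds for 16 hr following a 5 hr preincubation.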
# [9] = activation: at 76.8 µM (top of the series) unless noted
# Potency is the fitted concentration of half-maximal effect; tags give direction and shape of the fitted curve or compound fluorescence and quenching.
# Sequence of UniProt P19793 (P19793 whole entry, looked up): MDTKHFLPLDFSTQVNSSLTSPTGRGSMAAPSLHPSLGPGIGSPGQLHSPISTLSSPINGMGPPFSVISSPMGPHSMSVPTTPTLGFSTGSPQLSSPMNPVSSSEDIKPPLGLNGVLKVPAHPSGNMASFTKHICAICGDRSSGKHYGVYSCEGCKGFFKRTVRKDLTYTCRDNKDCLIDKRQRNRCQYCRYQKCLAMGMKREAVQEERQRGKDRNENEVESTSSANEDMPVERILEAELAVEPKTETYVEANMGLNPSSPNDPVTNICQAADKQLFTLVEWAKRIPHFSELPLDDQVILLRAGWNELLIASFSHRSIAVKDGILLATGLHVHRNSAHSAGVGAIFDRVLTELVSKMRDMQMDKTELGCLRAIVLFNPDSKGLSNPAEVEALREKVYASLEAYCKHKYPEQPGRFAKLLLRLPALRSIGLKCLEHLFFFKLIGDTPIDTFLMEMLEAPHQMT
structure (smiles),measurement,setting,value
O=c1cc[nH]c(=O)[nH]1,Potency,[1],inactive
same,Potency,[2]; [9],inactive
CC[C@]1(O)C[C@@H]2CN(CCc3c([nH]c4ccccc34)[C@@](C(=O)OC)(c3cc4c(cc3OC)N(C)[C@H]3[C@@](O)(C(=O)OC)[C@H](OC(C)=O)[C@]5(CC)C=CCN6CC[C@]43[C@@H]65)C2)C1,Potency,[3],"inconclusive: 26.8 µM [cytotoxic, partial curve, poor fit]"
same,Potency,[4],"inconclusive: 237 nM [cytotoxic, full curve, poor fit] and inconclusive: 376 nM [cytotoxic, partial curve, poor fit]"
same,Potency,[5],active: 596 nM and active: 8.41 µM
same,Potency,[6]; [9],"active: 268 nM and inconclusive: 268 nM [activator, full curve]"
CC[C@H]1CN2CCc3cc(OC)c(OC)cc3[C@@H]2C[C@@H]1C[C@H]1NCCc2cc(OC)c(OC)cc21,Potency,[7],"inconclusive: 17.4 µM [cytotoxic, full curve]"
same,Potency,[3],active: 6.94 µM and active: 4.25 µM
same,Potency,[4],"inconclusive: 274 nM [cytotoxic, full curve] and inconclusive: 944 nM [cytotoxic, full curve]"
same,activation,[6]; at 35.3 µM (top of the series),inconclusive: -18.7%
same,activation,[6]; at 76.8 µM (top of the series),inconclusive: -12.3%
same,activation,[2]; at 35.3 µM (top of the series),inconclusive: -14.9%
same,activation,[2]; at 76.8 µM (top of the series),inconclusive: -26.5%
same,Potency,[8],"inconclusive: 3.01 µM [rising, partial curve]"
CC1COc2ccccc2N1C(=O)C(Cl)Cl (stereo unspecified),Potency,[1],"inconclusive: 4.89 µM [rising, full curve] and inconclusive: 7.75 µM [rising, full curve]"
same,Potency,[2]; [9],"inconclusive: 0.0616 µM [inhibitor, full curve]"
same,activation,[2]; [9],inconclusive: -41.3%
CCc1cccc(O)c1,Potency,[7],"inactive and inconclusive: 449 nM [cytotoxic, full curve, poor fit]"
same,Potency,[1],inactive
same,Potency,[6]; [9],inactive
Cc1ccc(C(C)C)c(O)c1,Potency,[7],"inconclusive: 49 µM [cytotoxic, partial curve, poor fit]"
same,Potency,[1],inactive
CCOCC(=O)O,Potency,[1],inactive
same,activation,[2]; [9],inconclusive: 17.4%
Cc1cc(C)c(O)c(C)c1,Potency,[7],inactive
same,Potency,[1],inactive
same,Potency,[8],inactive
O=C(O)CCCCCCCC(=O)O,Potency,[7],inactive
same,Potency,[1],inactive
same,activation,[2]; [9],inconclusive: 11.4%
same,activation,[2]; at 35.3 µM (top of the series),inactive: 2.46%
same,activation,[2]; at 76.8 µM (top of the series),inactive: 9.97%
CCN(Cc1cccc(S(=O)(=O)O)c1)c1ccc(C(=C2C=CC(=[N+](CC)Cc3cccc(S(=O)(=O)O)c3)C=C2)c2ccc(O)cc2S(=O)(=O)[O-])cc1,Potency,[7],"inconclusive: 21.1 µM [cytotoxic, partial curve]"
same,Potency,[3],inconclusive: 33.4 µM [cytotoxic]
same,Potency,[4],active: 10.5 µM
same,Potency,[8],"inconclusive: 29.7 µM [cytotoxic, partial curve]"
CC1=C(/C=C/C(C)=C/C=C/C(C)=C/C(=O)O)C(C)(C)CCC1,Potency,[7],inconclusive: 26.8 µM [cytotoxic]
same,Potency,[3],"active: 43.7 µM and inconclusive: 54.9 µM [cytotoxic, single point] and inconclusive: 19 µM [cytotoxic, partial curve]"
same,Potency,[4],"inconclusive: 68.7 µM [cytotoxic, partial curve, poor fit]"
same,activation,[6]; [9],inconclusive: 0%
same,Potency,[8],"inconclusive: 26.8 µM [cytotoxic, partial curve, poor fit]"
CCCOC(=O)NCCCN(C)C,Potency,[1],inactive
same,Potency,[2]; [9],active: 21.9 µM
CNC[C@H](O)[C@@H](O)[C@H](O)[C@H](O)CO,Potency,[3],inactive
Cc1ccc(S(=O)(=O)O)cc1,Potency,[1],inactive
same,activation,[2]; [9],inconclusive: 11.2%
NC(N)=S,Potency,[1],inactive
same,activation,[2]; [9],inconclusive: 17%
CN1CCCC1=O,Potency,[7],"inconclusive: 0.507 µM [cytotoxic, partial curve, poor fit]"
same,Potency,[1],inactive
c1ccc2scnc2c1,Potency,[7],"inconclusive: 0.195 µM [cytotoxic, single point]"
same,Potency,[1],inactive
same,activation,[6]; [9],inconclusive: -13.3%
C#CCN(C)Cc1ccccc1,Potency,[1],inactive
same,Potency,[2]; [9],inactive
same,Potency,[8],inactive
CC(C)CCCCCCCOC(=O)CCCCC(=O)OCCCCCCCC(C)C,Potency,[1],inactive
same,Potency,[2]; [9],inactive and inconclusive: 49 µM [activator]
CCOC(=O)c1ccc(I)cc1,Potency,[7],inactive
same,Potency,[1],inactive
same,Potency,[6]; [9],"inconclusive: 62.2 µM [activator, partial curve, poor fit]"
